The whole screen tested about 48,000 compounds, of which about 450 (0.94%) were called active. Inconclusive means that the source gave no clear call. Such entries were picked first, then a sample of the others. Calls come from the whole dose curve; as a rule, active = well fitted inhibition curve with a large enough effect; inconclusive = small, poorly fitted or top-dose-only effect; inactive = no such curve, though single readings can be large or run the other way. Potencies of inconclusive entries are doubtful fits and often do not repeat.
Assay: Primary qHTS for Identification of Small Molecule Inhibitors of Huntingtin Promoter Activity; note: nearly all actives have a fitted effect of over 50% in size
Conditions: HEK293 HTT promoter firefly luciferase reporter (activity 0% = vehicle and -100% = no light), 24 h; series mostly up to 57.5 µM
Summary of the method: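 Firefly luciferase signal from promoter-reporter HEK293 cells was scaled between vehicle (0%) and zero RLU (-100%). Compounds were tested at final concentrations of up to 57.5 uM over 24 h at 37 degrees C. PTC124 at 50 uM final served as control inhibitor.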
Potency is the fitted concentration of half-maximal effect; tags give direction and shape of the fitted curve.

| Compound | Potency |
| --- | --- |
| COc1cc(OC)cc(-c2cc3nc(C)c(CCC(=O)NCCc4cccc(C)c4)c(C)n3n2)c1 | inconclusive: 17.8 µM [inhibitor, partial curve, poor fit] |
| COc1cc(NC(=O)Cn2nc(C(F)(F)F)c3c2CCC3)cc(OC)c1OC | inconclusive: 39.8 µM [inhibitor, partial curve, poor fit] |
| CC1CCCN(CCCNC(=O)c2cc(Sc3ccc(F)cc3)nc3ccccc23)C1 (stereo unspecified) | inconclusive: 35.5 µM [inhibitor, partial curve, poor fit] |
| CCN(CC)CCOc1ccc(Nc2ncc3cc(-c4c(Cl)cccc4Cl)c(=O)n(C)c3n2)cc1 | inconclusive: 0.432 µM [inhibitor, full curve] |
| O=C(CCCn1c2ccccc2c(=O)c2ccccc21)Nc1cccc(Cl)c1 | inconclusive: 35.5 µM [inhibitor, single point] |
| COc1cccc(CNC(=O)c2cc3c(-c4ccccc4F)nn(C)c3s2)c1 | inconclusive: 20 µM [inhibitor, partial curve] |
| Cc1csc2nc(COC(=O)c3ccccc3NC(=O)c3cccc(Br)c3)cc(=O)n12 | inconclusive: 15.8 µM [inhibitor, partial curve, poor fit] |
| O=C(NCCc1ccc(Cl)cc1)c1c2c(nc3ccccc13)C(=O)N(C1CCCCC1)C2 | inconclusive: 39.8 µM [inhibitor, single point] |
| O=S(=O)(c1ccc(Br)s1)N1CCN(c2cccc(C(F)(F)F)c2)CC1 | inconclusive: 25.1 µM [inhibitor, partial curve, poor fit] |
| COc1cc(C)ccc1OCCSc1nc2ccc(NC(=O)c3ccco3)cc2s1 | inconclusive: 39.8 µM [inhibitor, single point] |
| CCN1c2ccccc2-c2nc(SCC(=O)Nc3cccc(C)c3C)ncc2S1(=O)=O | inconclusive: 20 µM [inhibitor, partial curve, poor fit] |
| CC(=NNC(=S)N1CCC1)c1ccccn1 | inconclusive: 0.0039 µM [inhibitor, full curve] |
| O=C(NCCc1ccccc1)c1ccc2c(c1)N(Cc1ccc(Cl)cc1)C(=O)CS2 | inconclusive: 39.8 µM [inhibitor, single point] |
| CCCCNC(=O)c1nn(C)c2c1CSc1ccccc1-2 | inactive |
| CCCNC(=O)[C@H]1O[C@H]1C(=O)N[C@H](C(=O)N1CCC[C@@H]1C(=O)OC)C(C)CC (stereo partly specified) | inactive |
| Cc1ccc(-c2nn3c(-c4ccccc4C)nnc3c3ccccc23)cc1 | inconclusive: 39.8 µM [inhibitor, single point] |
| CCC(=O)Oc1ccc2c(c1)CC[C@@H]1[C@@H]2CC[C@@]2(C)[C@H]1C[C@@H](OC(=O)CC)[C@@H]2OC(=O)CC | inactive |
| CCOc1ccc(Nc2oc(-c3ccc(COc4ccc(OC)cc4)o3)nc2C#N)cc1 | inactive |
| CCOC(=O)C1CCN(c2cc3c(cc2NC(=O)c2ccc(Cl)cc2)n(C)c(=O)n3C)CC1 | inactive |
| CCN(CC)C(=O)Cn1c(=O)cc(C)c2c(C)nn(-c3cccc(Cl)c3C)c21 | inactive |
| Cc1ccc(Nc2nc3nonc3nc2Nc2cccc(C(F)(F)F)c2)cc1Cl | active: 1.26 µM |

| Compound | Potency |
| --- | --- |
| CCOC(=O)C1=C(CN2CCN(c3ccc(OC)cc3)CC2)NC(=O)NC1c1ccc(OC)cc1 (stereo unspecified) | inconclusive: 39.8 µM [inhibitor, partial curve, poor fit] |
| C/C=C1\NC(=O)[C@H]2CSSCC/C=C/[C@H](CC(=O)N[C@H](C(C)C)C(=O)N2)OC(=O)C(C(C)C)NC1=O (stereo partly specified) | inactive |
| Cc1ccc(NC(=O)C(Cc2c[nH]c3ccccc23)NC(=O)OC(C)(C)C)c(C)c1 (stereo unspecified) | inconclusive: 12.6 µM [inhibitor, partial curve, poor fit] |
| CCOC(=O)[C@@H](N)CCC(=O)N[C@@H](CSCc1ccccc1)C(=O)N[C@@H](C(=O)OCC)c1ccccc1 | inactive |
| CCOc1ccc(CNC(=O)c2cccc(NC(=O)N3CCSc4ncccc43)c2)cc1OC | inconclusive: 11.2 µM [inhibitor, partial curve, poor fit] |
| CCc1ccc(C(=O)c2cn(CC(=O)Nc3ccc(Cl)cc3)c3cc4c(cc3c2=O)OCO4)cc1 | inconclusive: 31.6 µM [inhibitor, partial curve, poor fit] |
| Cc1ccc(S(=O)(=O)n2nc(C)c(S(=O)(=O)N3CCCCCC3)c2C)cc1 | inactive |
| CC(C)c1nn2c(=O)cc(COC(=O)c3cccc(NC(=O)COc4ccc(F)cc4)c3)nc2s1 | inconclusive: 7.08 µM [inhibitor, partial curve] |
| CCOc1ccccc1NC(=O)c1c(NC(=O)COc2ccc(Cl)cc2)sc2c1CCCCC2 | inactive |
| Cc1ccc(NC(=O)C2(c3ccc4c(c3)OC(F)(F)O4)CC2)nc1-c1cccc(C(=O)O)c1 | inconclusive: 0.0685 µM [inhibitor, full curve] |
| CS(=O)(=O)N1CCc2cc(C(=O)N3CCN(c4cccc(Cl)c4)CC3)ccc21 | inconclusive: 31.6 µM [inhibitor, single point] |
| COCCCNc1nc(NCc2ccccc2OC)c2cnn(C)c2n1 | inconclusive: 39.8 µM [inhibitor, partial curve, poor fit] |
| COc1ccc(NC(=O)Cn2c(=O)n(-c3cc(C)cc(C)c3)c(=O)c3oc4ccccc4c32)cc1OC | inconclusive: 39.8 µM [inhibitor, single point] |
| O=C(NCCc1ccccc1)c1nn(-c2ccccc2F)nc1CO | inactive |
| COc1cc(NC(=O)c2cc(C3CC3)nc3c2c(C)nn3-c2ccccc2)cc(OC)c1 | inconclusive: 31.6 µM [inhibitor, partial curve, poor fit] |
| COC(=O)Cn1c(=O)c2cccn2c2ccc(F)cc21 | inactive |
| CCS(=O)(=O)N1CCCC(C(=O)NCCOC)C1 (stereo unspecified) | inactive |
| COc1ccccc1OC(C)C(=O)Nc1cccc(-c2nc3ccccc3s2)c1 (stereo unspecified) | inactive |
| Cc1ccccc1Cn1nnc2c(=O)[nH]c(C3CCN(C(=O)c4ccc(F)cc4)CC3)nc21 | inconclusive: 39.8 µM [inhibitor, partial curve, poor fit] |
| Cc1ccc(N(CC(=O)NCCc2ccc(Cl)cc2)S(=O)(=O)c2c(C)noc2C)cc1 | inconclusive: 39.8 µM [inhibitor, single point] |
| Cc1ccc(-n2c(SCc3ccccc3F)nc3[nH]ncc3c2=O)cc1Cl | inconclusive: 31.6 µM [inhibitor, single point] |

| Compound | Potency |
| --- | --- |
| COCCc1ccccn1 | inactive |
| CCOC(=O)N1CCc2c(sc3c2C(=O)NC(c2ccc(N(C)C)cc2)N3)C1 (stereo unspecified) | inconclusive: 8.91 µM [inhibitor, full curve] |
| CC[C@H]1OC(=O)[C@H](C)[C@@H](O[C@H]2C[C@@](C)(OC)[C@@H](O)[C@H](C)O2)[C@H](C)[C@@H](O[C@@H]2O[C@H](C)C[C@H](N(C)C)[C@H]2O)[C@](C)(O)C[C@H](C)C(=NOCOCCOC)[C@H](C)[C@@H](O)[C@]1(C)O | inactive |
| CCCCOc1ccc(C2c3c(oc4ccc(C)cc4c3=O)C(=O)N2CCCN(C)C)cc1OCC (stereo unspecified) | inactive |
| CCN(CC)S(=O)(=O)c1cccc(C(=O)Nc2ccccc2C(=O)Nc2ccc(Cl)cc2)c1 | inconclusive: 39.8 µM [inhibitor, single point] |
| Cc1ccc(NC(=O)c2cc(S(=O)(=O)N3CCC4(CC3)OCCO4)ccc2F)cc1Cl | inconclusive: 39.8 µM [inhibitor, partial curve, poor fit] |
| CCCCN(CCCNC(=O)c1cc(Nc2cccc(SC)c2)nc2ccccc12)Cc1ccccc1 | inconclusive: 25.1 µM [inhibitor, single point] |
| COc1cccc(NC(=O)c2cccc3c(=O)c4c([nH]c23)CCCC4)c1 | inconclusive: 28.2 µM [inhibitor, partial curve, poor fit] |
| CCCOc1ccc(C2c3c(-c4ccccc4O)n[nH]c3C(=O)N2CCc2ccccc2)cc1OCC (stereo unspecified) | inconclusive: 22.4 µM [inhibitor, single point] |
| Clc1ccc2c(N3CCN(CCCN4CCN(c5ccnc6cc(Cl)ccc56)CC4)CC3)ccnc2c1 | inactive |
| CC(=O)c1c(C)c2cnc(Nc3ccc(N4CCNCC4)cn3)nc2n(C2CCCC2)c1=O | inconclusive: 24.3 µM [inhibitor, partial curve] |
| O=S(=O)(c1cccc(Cl)c1)c1nnn2c1nc(NCc1ccc3c(c1)OCO3)c1sccc12 | inconclusive: 4.47 µM [inhibitor, partial curve, poor fit] |
| CCN1C[C@H](C)n2c(c(O)c3c(=O)n(Cc4ccc(F)c(Cl)c4)nc(C(=O)NC)c32)C1=O | inactive |
| O=C(O)c1ccccc1S | inactive |
| COc1ccc(-c2noc(CCC(=O)N(C)c3cc(Cl)ccc3OC)n2)cc1 | inconclusive: 25.1 µM [inhibitor, single point] |
| COc1ccc(OC)c(NC(=O)c2oc(=O)c3ccccc3c2-c2ccccc2)c1 | inconclusive: 25.1 µM [inhibitor, partial curve, poor fit] |
| COc1ccc(CC(=O)N2CCc3cc(OC)c(OC)cc3C2COc2ccc(F)cc2)cc1 (stereo unspecified) | inconclusive: 28.2 µM [inhibitor, single point] |
| Cn1nc(-c2ccccc2F)c2cc(C(=O)NCc3ccccc3Cl)sc21 | inconclusive: 39.8 µM [inhibitor, partial curve, poor fit] |
| COc1ccc(N2CCN(S(=O)(=O)c3ccc(F)c(C(=O)Nc4ccccc4Cl)c3)CC2)cc1 | inconclusive: 22.4 µM [inhibitor, partial curve, poor fit] |

Source: PubChem BioAssay AID1508623 (National Center for Advancing Translational Sciences (NCATS), 2021)
